Measurements reported in ChEMBL document CHEMBL5308541, “MAIP: An Open-Source Tool to Enrich High-Throughput Screening Output and Identify Novel, Druglike Molecules with Antimalarial Activity” (ACS Med Chem Lett, 2023).
About 540 (0.36%) of roughly 150,000 compounds showed an effect of 50% or more. The list shows a part of the results.

What follows are compounds tested on Plasmodium falciparum (assay: Primary screen in NF54 nanoGlo assay, in single point, at 2uM, 72h; a lower Z score goes with more inhibition). Conditions: timepoint 72 hour.
Type: functional, Erythrocyte
For COc1ccc(-c2cncc(C(=O)Nc3cnccc3OC)c2)cc1, the “% Inhibition” value was -3% and the Z score was 0.52. CN(Cc1ccc2cc[nH]c2n1)Cc1noc(C2CCC2)n1 was tested, and the “% Inhibition” value was 0% and the Z score was 0.01. With CCC(C)CCC(=O)N1CCCCCC(Nc2cc(-n3ccnc3)ncn2)C1 (stereo not drawn) the “% Inhibition” value was -4% and the Z score was 0.68. With O=C(NCCc1c[nH]cn1)c1cnc(Nc2ccccc2)nc1 the “% Inhibition” value was -8% and the Z score was 1.66. For N#C[C@@H](NC(=O)c1cccc(-n2cccn2)n1)C1CCCCC1, the “% Inhibition” value was -8% and the Z score was 1.32. Cc1nc2c([nH]1)CN(C(=O)CN1CCC[C@H](O)C1)CC2 was tested, and the “% Inhibition” value was 3% and the Z score was -0.44. With CCn1nc(C(=O)N2CCN(Cc3cccc(F)c3)C(=O)C2)cc1C the “% Inhibition” value was -1% and the Z score was 0.14. With COc1ccc2sc(C(=O)N3CCC[C@H](N4CCNCC4=O)C3)c(C)c2c1 the “% Inhibition” value was 2% and the Z score was -0.38. With O=S1(=O)CCN(C2CCN(Cc3cnn4ccccc34)CC2)CC1 the “% Inhibition” value was 1% and the Z score was -0.23. CN(C)CCCN(CCCN(C)C)C(=O)CCc1ccc(O)c(Cl)c1 was tested, and the “% Inhibition” value was 3% and the Z score was -0.59. In the case of CN(C)Cc1ccc(N2CCN(c3cncc(OCC4CCCC4)n3)CC2)nc1, the “% Inhibition” value is reported as 10% and the Z score is reported as -1.77. For Cn1ccc(NC(=O)CN2CCOc3ccc(CO)cc3C2)n1, the “% Inhibition” value was 4% and the Z score was -0.74. For COC1(c2nc(C3CCOCC3)no2)CCN(c2ncnc3[nH]ccc23)CC1, the “% Inhibition” value was 0% and the Z score was -0.02. In the case of C[C@@H](c1ncc(-c2ccccc2)o1)N1CCC(C(=O)NCCCN2CCCCC2)CC1, the “% Inhibition” value is reported as -5% and the Z score is reported as 1.18. In the case of O=S1(=O)CCN(C2CCN(c3ccnc(C(F)(F)F)c3)CC2)CC1, the “% Inhibition” value is reported as -8% and the Z score is reported as 1.26. In the case of O=C(c1cc2ccccc2o1)N1CCC(N2CCN(c3ccc(C(F)(F)F)cn3)CC2)CC1, the “% Inhibition” value is reported as -8% and the Z score is reported as 1.24. With COc1ccccc1COCC1CN(C(C)C(O)c2ccc(O)cc2)CC(COCc2ccccc2OC)O1 (stereo not drawn) the “% Inhibition” value was 4% and the Z score was -0.92. c1ccc(CCN2CCC([C@H]3CCN(c4ncccn4)C3)CC2)cc1 was tested, and the “% Inhibition” value was 0% and the Z score was -0.06. In the case of Cc1ccc2[nH]c(-c3cc4n(n3)CCN(c3ccnc(N)n3)C4)nc2c1C, the “% Inhibition” value is reported as 84% and the Z score is reported as -16.64. CC1CN(C(=O)C(c2cncn2C)N(C)C)CC(C)O1 (stereo not drawn) was tested, and the “% Inhibition” value was -5% and the Z score was 0.9. Cn1cc(-c2cncc(C(=O)Nc3ccc(Oc4nncc5ccccc45)c(Cl)c3)c2)cn1 was tested, and the “% Inhibition” value was -3% and the Z score was 0.74. For Cc1ccc(CN2CCC(CNC(=O)c3n[nH]nc3C)CC2)o1, the “% Inhibition” value was -4% and the Z score was 0.73. In the case of CNc1ccnc(NCCCN2CCC(C(N)=O)CC2)n1, the “% Inhibition” value is reported as -8% and the Z score is reported as 1.46. With CC(C)Nc1ncc(CN2CCN(C/C=C/c3ccccc3)CC2)cn1 the “% Inhibition” value was -5% and the Z score was 0.91. For FC(F)(F)Oc1ccccc1-c1ccc(-n2ccnc2)nn1, the “% Inhibition” value was -13% and the Z score was 2.04. For COc1ccccc1-n1cc(C(=O)N2CCN(Cc3cccc(C)c3)C(=O)C2)cn1, the “% Inhibition” value was -8% and the Z score was 1.32. In the case of CC(C)c1ccc(COc2ccc(O)c(-c3c[nH]nc3-c3ccc4c(c3)OCCCO4)c2)cc1, the “% Inhibition” value is reported as -4% and the Z score is reported as 0.55. With COc1ccc2nccc(N3CCC(O)CC3)c2c1 the “% Inhibition” value was 5% and the Z score was -0.83. With CCc1nnc(C[C@@H]2CC[C@H](Nc3nccc(N4CCCC4)n3)C2)o1 the “% Inhibition” value was -14% and the Z score was 2.71. CNc1nc(N[C@H]2CCCN(Cc3ccc(Cl)cc3)C2)nc2c1CCC2 was tested, and the “% Inhibition” value was 49% and the Z score was -8.5. For Cc1ccc2c(C(=O)NCC3(CN4CCCC4)CC3)cnn2c1, the “% Inhibition” value was 8% and the Z score was -1.46. For COc1cccc(-c2nc3cnccn3c2NCCC(=O)NC2CCN(C)CC2)c1, the “% Inhibition” value was 3% and the Z score was -0.63. CNS(=O)(=O)c1cc(-c2ccc(N(C)Cc3ccccc3)nn2)ccc1C was tested, and the “% Inhibition” value was -11% and the Z score was 2.26. For O=C(C(=O)N1CCN(CC2OCCO2)CC1)N1CCOCC1, the “% Inhibition” value was 5% and the Z score was -0.82. In the case of c1cc(-c2nc(CNc3cnn(CCN4CCCCC4)c3)cs2)cs1, the “% Inhibition” value is reported as 2% and the Z score is reported as -0.32. In the case of CC1(N2CCC2)CCC(NC[C@H]2CCN(Cc3ccccc3)C2)CC1 (stereo partly drawn), the “% Inhibition” value is reported as 73% and the Z score is reported as -12.59. For CC(=O)N1CCC(CNc2cc(C)nc3ccc(C(F)(F)F)cc23)CC1, the “% Inhibition” value was -3% and the Z score was 0.63. With Cc1ccc(OC[C@@H](O)CNc2nccc(-c3ccncc3)n2)c(C)c1 the “% Inhibition” value was -6% and the Z score was 1.1. For OCc1cc2ccccc2nc1-c1cccc2[nH]ccc12, the “% Inhibition” value was -1% and the Z score was 0.28. Cc1cc(C)nc(Nc2cccc(C(=O)Nc3cccc4[nH]ccc34)c2)n1 was tested, and the “% Inhibition” value was -10% and the Z score was 1.71. COc1cccc(-c2cc(C(=O)Nc3cnn4c3NCCC4)n[nH]2)c1 was tested, and the “% Inhibition” value was 6% and the Z score was -0.85. In the case of C[C@H](NCc1cccc(-c2cnn(C)c2)c1)c1cnc2ccsc2c1, the “% Inhibition” value is reported as 4% and the Z score is reported as -0.95. For CN1CCN2CCN(Cc3ccc(OCCn4ccnc4)cc3)C[C@@H]2C1, the “% Inhibition” value was 4% and the Z score was -0.58. O=C(NCc1ccc2ncccc2c1)c1ccccc1Br was tested, and the “% Inhibition” value was 3% and the Z score was -0.57. In the case of CC(C)(CN[C@H]1CCCN(c2nc3ccccc3s2)C1)CN1CCOCC1, the “% Inhibition” value is reported as -5% and the Z score is reported as 0.95. For c1ccc(-c2cc(CNC3CCN(c4ncnc5[nH]cnc45)CC3)on2)nc1, the “% Inhibition” value was -2% and the Z score was 0.31. Cc1cn(CC(=O)N2CCC(c3cc(C(C)C)n[nH]3)CC2)c(=O)[nH]c1=O was tested, and the “% Inhibition” value was -9% and the Z score was 1.87. CN1CCC[C@H](Nc2ccc3cc(Cl)ccc3n2)C1 was tested, and the “% Inhibition” value was 14% and the Z score was -3.01. For CN1CCCC[C@@H]1CC(=O)N1CCN(c2nccc(-c3ccccc3)n2)CC1, the “% Inhibition” value was 1% and the Z score was -0.26. In the case of Cc1ccnc(NCc2cnc3ccccc3c2)n1, the “% Inhibition” value is reported as -1% and the Z score is reported as 0.28. With CCC(=O)c1cccc(-c2ccc(C(=O)N(CC)C[C@H]3CCN(C)C3)cc2)c1 the “% Inhibition” value was -4% and the Z score was 0.78. With CCn1ccc2ccc(CN3CCc4[nH]nc(C5CC5)c4C3)cc21 the “% Inhibition” value was -1% and the Z score was 0.14. In the case of C[C@@H](c1ccc(-c2ccc3[nH]cnc3c2)cc1)N1CCCC1, the “% Inhibition” value is reported as 2% and the Z score is reported as -0.36. For Cc1n[nH]c2ncc(NCc3ccc(Oc4cnccn4)cc3)cc12, the “% Inhibition” value was -8% and the Z score was 1.32. With O=C(Nc1ccc(N2CCC(NCc3c[nH]nc3-c3ccc(Cl)cc3)CC2)cc1)C1CCCC1 the “% Inhibition” value was -3% and the Z score was 0.56. With CCCC(=O)NC1COCC1Cc1ccncc1 (stereo not drawn) the “% Inhibition” value was 82% and the Z score was -16.24. With CN(C(=O)c1cc(-c2cccnc2)on1)c1cc(-c2ccccc2)[nH]n1 the “% Inhibition” value was -5% and the Z score was 0.78. In the case of COCCN(Cc1ccncc1)C(=O)[C@H](C)N1CCN(C)CC1, the “% Inhibition” value is reported as -15% and the Z score is reported as 2.64. For CCN(CCNc1nccc(-c2ccccn2)n1)c1cccc(C)c1, the “% Inhibition” value was 4% and the Z score was -0.7. In the case of CC(C)c1cc(NC[C@H]2CCCCCN2)nc(N)n1, the “% Inhibition” value is reported as 5% and the Z score is reported as -1.02. For Fc1ccc(C(CCCN2CCN3CCCC[C@H]3C2)c2ccc(F)cc2)cc1, the “% Inhibition” value was -19% and the Z score was 3.4. With COCc1cc(OCC2(CC#N)CC2)c2cc(F)ccc2n1 the “% Inhibition” value was -1% and the Z score was 0.2. With COc1ccc2c(c1)C=C(CN1CC[C@H](Cc3cccc(CO)c3)C1)CO2 the “% Inhibition” value was -1% and the Z score was 0.24. For Cc1nnc(NCC2CCN(C3CCN(C)CC3)CC2)s1, the “% Inhibition” value was -8% and the Z score was 1.18. O=c1c2c(Cl)cccc2ncn1CC1CCNCC1O (stereo not drawn) was tested, and the “% Inhibition” value was -1% and the Z score was 0.22. In the case of CC1CCN(CCc2cccc(NC(=O)c3ccccc3-c3cncnc3)c2)CC1, the “% Inhibition” value is reported as -3% and the Z score is reported as 0.58. For Cc1cc(NCCS(C)(=O)=O)c2c(C)noc2n1, the “% Inhibition” value was -1% and the Z score was 0.11. For COc1cc(-c2onc(N(C)C)c2C(=O)N2CC[C@H](N3CCN(C)CC3)C2)ccc1F, the “% Inhibition” value was -8% and the Z score was 1.68. In the case of OCC1CCN(c2ncccc2NCc2cccc3[nH]ccc23)CC1, the “% Inhibition” value is reported as -2% and the Z score is reported as 0.38. With O=C(NCc1cc2ccc(F)cc2[nH]c1=O)[C@@H]1CC2(CCNCC2)CN1 the “% Inhibition” value was -2% and the Z score was 0.38. With Fc1ccccc1N1CC[C@H](CNc2nccc(-c3ccncc3)n2)C1 the “% Inhibition” value was -4% and the Z score was 0.71. With O=C(Nc1cccc2cn[nH]c12)N1CCN(CCN2CCOCC2)CC1 the “% Inhibition” value was -1% and the Z score was 0.24. For O=C(NCCN1CCNCC1)c1cccc(-c2cnc3ccccc3n2)c1, the “% Inhibition” value was 5% and the Z score was -0.9. c1cc2c(NCc3ccc(-c4ccoc4)cc3)ncnc2cn1 was tested, and the “% Inhibition” value was 2% and the Z score was -0.31. In the case of COc1cncc(-c2cccc(C(=O)N[C@@H]3C[C@@H](CO)N(C)C3)c2)c1, the “% Inhibition” value is reported as 6% and the Z score is reported as -0.99. For CCN(Cc1nc(C(C)C)no1)C(=O)Cc1nc2[nH]c3c(c(=O)n2n1)CCCC3, the “% Inhibition” value was -13% and the Z score was 2.71. For Nc1nccc(N2CCC(CNC(=O)c3ccc(-n4ccnc4)cc3)CC2)n1, the “% Inhibition” value was -5% and the Z score was 0.91. For C[C@@H]1[C@H](N2CCOCC2)CCN1Cc1ccc(Cl)c2cccnc12, the “% Inhibition” value was -2% and the Z score was 0.25. In the case of CC(C(=O)Nc1ccc2ccccc2c1)N1CCCC(CN2CCN(C)CC2)C1 (stereo not drawn), the “% Inhibition” value is reported as 2% and the Z score is reported as -0.43. CCCOC(=O)C(C)(C)NC(=O)OC was tested, and the “% Inhibition” value was 6% and the Z score was -1.22. COc1cccc2[nH]cc(CC(=O)Nc3cc(N4CCN(C)CC4)ccn3)c12 was tested, and the “% Inhibition” value was -2% and the Z score was 0.37. With Cc1nc(N2CCCC(NC(C)C)C2)cc(N2CCCC(NC(C)C)C2)n1 (stereo not drawn) the “% Inhibition” value was 3% and the Z score was -0.53. In the case of CN1CCN(C(=O)CCNC(=O)c2ccc(F)cc2)C2(CCCCC2)C1, the “% Inhibition” value is reported as -5% and the Z score is reported as 0.73. With Cc1cc(C#N)ccc1NC1CCC(OC(=O)[C@@H]2CCCN2C(=O)C(F)(F)F)CC1 (stereo partly drawn) the “% Inhibition” value was -3% and the Z score was 0.52.
